This is one part of the list.

Sequences and labels used below:
T1: UNK ZnF1-3 (human, UniProt Q9C0B0 31-174)
T1 sequence: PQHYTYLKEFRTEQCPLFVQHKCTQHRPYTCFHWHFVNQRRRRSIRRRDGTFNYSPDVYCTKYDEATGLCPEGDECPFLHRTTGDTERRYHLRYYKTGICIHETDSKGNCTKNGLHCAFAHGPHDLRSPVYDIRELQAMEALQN

B1: 31532532_31534450_220_CDS_ENSG00000082213_ENST00000325366|human|control|control (ssRNA)
RNA: GGGAGUUCUACAGUCCGACGAUCGAAAUGUAAAAAACUUACAUUACUGGCAGGAAGAUGCUUUGAGCCUAUGGCCCGGUAUAUAAAGGGUAGAACCUCCUGAUGAUCCUCCACCACCCACACUGGGAGCUUGGGGUAACGCCGCAACAGAGGAUUGAGCAUCA
B2: chr3:176740097:176740098:-_ENSG00000177565_ENST00000430069|hu_mus|hu_hu_hu_mus_True|28_108 (ssRNA)
RNA: GGGAGUUCUACAGUCCGACGAUCUGUUUUUUACACCACAAAAGGAGGCACUUUCAGUAUCUGCAAAAGGUGUUUAGUCCUAAAACAUACUCACCUAGAGGAUAACUAAAACAGAAUAUCUGUUACACUCUAAGACCUACUCCACAACAGAGGAUUGAGCAUCA
B3: chr1:26449037:26449038:+_ENSG00000175087_ENST00000374271|hu_hu|motif|central (ssRNA)
RNA: GGGAGUUCUACAGUCCGACGAUCAUUUGCAAAUAAUAUGUGUCACGUUUCCCAGCUGCUAUCUUUAAAUGCAAUUUGUACGGAUCUGAGUUCUAGUUCAAAAGCAUCUGGACGAUCCUGAGGGUUUGCAGCCAGCAUUUCCUUCAACAGAGGAUUGAGCAUCA
B4: chr3:176740097:176740098:-_ENSG00000177565_ENST00000430069|hu_mus|hu_hu_hu_mus_True|18_108 (ssRNA)
RNA: GGGAGUUCUACAGUCCGACGAUCUGUUUUUUACACCACAAAAGGAGGCACUUUCAGUAUCUGCAAAAGGUGUUUAGUCCUAAAACAUACUCACCUAGAGGAUAACUCAGGAAAACAUCAAUACAAUCUCUAAGACCUACUCCACAACAGAGGAUUGAGCAUCA
B5: 77987833_77989049_584_CDS_ENSMUSG00000009828_ENSMUST00000044551|mouse|control|control (ssRNA)
RNA: GGGAGUUCUACAGUCCGACGAUCUAUCUGGUACAUUAUAUUCCUUAUAGCAGACUCUGGAAACAACUUAUUUCUUUCUUUAAUGAGCUGGUAAAGGUUUUCCUUCAUGUACUCGAAGAUAAAGUAAAGAUGGUCGUUUUCCCUCAACAGAGGAUUGAGCAUCA
B6: chr5:71490377:71490378:+_ENSG00000131711_ENST00000296755|hu_hu|FALSE|FALSE (ssRNA)
RNA: GGGAGUUCUACAGUCCGACGAUCACCUACUCCCAUUUUUUGGAAAAGAAUGACAGGAUCAAUAGUAUUGCCUACACUUCUAAACAGAGGUUCUGGUUUCAUGGACAAUUUGUUUAGGUACUGGAGAGUGAAGCAGGCUUCUUCCAACAGAGGAUUGAGCAUCA
B7: 204354501_204354621_777_CDS_ENSG00000173166_ENST00000319170|human|control|control (ssRNA)
RNA: GGGAGUUCUACAGUCCGACGAUCAGUAUCUUCUAGUACAGAUUGCUGAGCAGCCUCAUCCAUACUCAAAGAGGCCUGUUCUAACUGUGCAGUGACGUCGUCCAAGGAGUAGCUGGCAUGGGAAGGUUUAGCUAUCCUAUUAGACAACAGAGGAUUGAGCAUCA
B8: chr10:62544473:62544474:+_ENSG00000170312_ENST00000395284|hu_mus|motif|central (ssRNA)
RNA: GGGAGUUCUACAGUCCGACGAUCAGUGACUCUGUGUCUACCCUUAUACACCACACCGUAAGUACCUUCUCCAAUUUUCUCGGUUUUGAUAUAGUCUUCCAUAGUUACUCAACAGGUUACGACGGACCCUCUCGUGAGCUGUUCCAACAGAGGAUUGAGCAUCA
B9: chr2:48782750:48782751:-_ENSMUSG00000026761_ENSMUST00000141441|mus_mus|FALSE|FALSE (ssRNA)
RNA: GGGAGUUCUACAGUCCGACGAUCUUUUUCUGAUGAGCAAAAAUAUCAAAUUCAUCCAGUAUGAAGAUCACUGGGCAACUGCUAGUCCGGUCACCUUUUUGCAAAGCUUCCAGAAGAAAUGAAAGGUUUUCAGCAAAGCUUCCACAACAGAGGAUUGAGCAUCA
B10: chr1:225977404:225977405:+_ENSG00000143742_ENST00000304786|hu_mus|FALSE|FALSE (ssRNA)
RNA: GGGAGUUCUACAGUCCGACGAUCUACUCCAAAAGAAACAUACCACUGCAGCAAAAGUUACAUUUUAUUUCAUCUUAGACACAAUCUAGAAAGACCUUUUCUUGUUAACUCUUCAACAAAUUACUGACAUGAAUUUACCAGAAACAACAGAGGAUUGAGCAUCA
B11: chr18:52937122:52937123:-_ENSG00000196628_ENST00000354452|hu_mus|motif|central (ssRNA)
RNA: GGGAGUUCUACAGUCCGACGAUCUAUACUGUCUGUUCCGUUGGCAGGGGGUGUGCAGGAAGAGGUGCUGUAAUGGUUUGUGCCACGGCGAUGGAACGUGGACAUCGGAGGAAGACUGGAGUUGAUGUCUGCCGAGGAGUGGGACAACAGAGGAUUGAGCAUCA
B12: chr11:102700179:102700180:-_ENSMUSG00000020929_ENSMUST00000107060|mus_mus|FALSE|FALSE (ssRNA)
RNA: GGGAGUUCUACAGUCCGACGAUCAUAAUUGAGCACAACAUCCUGUUUGGCGAGCUCCAGCAACAUAGGAUCGUCGAAGAACUUGCUGAUGCUCACAUCUUCACUCAGGCCCUUCCUACGACGGGUUUUGAUCAUGAACUCCCGCAACAGAGGAUUGAGCAUCA
B13: 68238525_68238645_86_5pUTR_ENSMUSG00000037685_ENSMUST00000037380|mouse|control|control (ssRNA)
RNA: GGGAGUUCUACAGUCCGACGAUCUGCGCCGCGCAGAGGGCUCAGCUGCCGCGGGGCCGCGCCUCCCACCCAGGGCAGCGUCGCCGCCAGGAGCCGCCUGGGCACUGGACGGGAGGGGGAAGGCGGCGAAGGAGCUGCGUCCGCCAACAGAGGAUUGAGCAUCA
B14: chr18:77180173:77180174:+_ENSMUSG00000090000_ENSMUST00000026487|mus_mus|FALSE|FALSE (ssRNA)
RNA: GGGAGUUCUACAGUCCGACGAUCGAUAUAAACUGAACAACAGUAUUAUGAGAUGAGCCAAGAACACCACAAAGCUGGUCUAAGACAUAAGACAGACGAACAAACGAAAGCUACUUAGAAUCAACAACCUACCUACAGACAGAACAACAGAGGAUUGAGCAUCA
B15: 25843335_25843557_1556_CDS_ENSMUSG00000003378_ENSMUST00000003468|mouse|control|control (ssRNA)
RNA: GGGAGUUCUACAGUCCGACGAUCUAGAGUCUGUGACAGGUUGAUGUCCAGGGUGGUGGCAUUCAUGGCCAGGGUCCGGUUAGAGUACCACACCCCUAUCUCACGGUGGCCCUGGCGGGACUUCUCCAGGAUGCGUAGUGUGUACAACAGAGGAUUGAGCAUCA
B16: chr3:132390928:132390929:+_ENSG00000081307_ENST00000264991|hu_mus|FALSE|FALSE (ssRNA)
RNA: GGGAGUUCUACAGUCCGACGAUCACUGGCUGCGCAGACGCCUUCUCGUUUCAGGGUUUUUUCAUCAAUAUUUGAAGCAACUACAAGUGGUGGCGCACACGCGAAGCAAGCCGACUCUCCAGGGAUCAUCAGCUGGAUGUGCCCCAACAGAGGAUUGAGCAUCA
B17: chr12:48362563:48362564:+_ENSG00000134291_ENST00000256686|hu_hu|hu_hu_hu_mus_False|1_28 (ssRNA)
RNA: GGGAGUUCUACAGUCCGACGAUCUCCGUCAAGCCCUUCGAUAGACCCUUGCGGGGGAAACUGUAAUCACUUUGUAUGGGGAAGGAAAAGAAACGCCAAAAACUUUCUUUCUUUCUUGGGUGGGGUGAGGCGGGAGGUUGGGAACAACAGAGGAUUGAGCAUCA
B18: 40030617_40030737_193_3pUTR_ENSG00000176396_ENST00000390658|human|control|control (ssRNA)
RNA: GGGAGUUCUACAGUCCGACGAUCCGGCUCCCGCCUCCCGCGGCCUACCUCCGCCUGCGGGACGUCUCUGUCACCAUUCGCCGCGCCUGUCUGCGGGACACUGCUGUCUGCGGGCAGCUUGGACAUCUCAGACCGUGGGGUCAACAACAGAGGAUUGAGCAUCA
B19: chr2:38870762:38870763:+_ENSMUSG00000026755_ENSMUST00000090993|mus_hu|FALSE|FALSE (ssRNA)
RNA: GGGAGUUCUACAGUCCGACGAUCAGAUCCUAAACAGGAUUUAGGAAACAGACGAUUUUCCCCUCCACCUUGAAAAUAAAAUACAUUUCAGCAGAUACAUGUCCUGAAAUAGUUUACUUGGGAGUUCCUAGGAAGAUGGUCCAUCAACAGAGGAUUGAGCAUCA
B20: chr7:107790313:107790314:-_ENSG00000091129_ENST00000351718|hu_hu|FALSE|FALSE (ssRNA)
RNA: GGGAGUUCUACAGUCCGACGAUCCUCUCUACCCAUAUGUUCAUAGUAUGAGAGGGCUGACAAACAAGUGCUUAGGAUAAACAUUCUAGAGAAAUGGAAUAUUGGCAAAGAGCUUAAAAAUUAAACAAAGGAAUUCAUGGCGUUCAACAGAGGAUUGAGCAUCA
B21: chr8:104447970:104447971:+_ENSG00000164934_ENST00000297579|hu_hu|hu_hu_hu_mus_False|1_98 (ssRNA)
RNA: GGGAGUUCUACAGUCCGACGAUCAUACACUUCCCUGCUUCGACUUUUGUCCACAGGAAAGAUUCUAAUAGACUUAUCAAAGCUGGCAGACACAAAUUCCUUCCCAGUGGGAGAGUAGUCCACAUCAAGUACUGCAGAUACAUGCAACAGAGGAUUGAGCAUCA
B22: chr5:145543945:145543946:-_ENSG00000133706_ENST00000545646|hu_hu|hu_hu_hu_mus_True|1_58 (ssRNA)
RNA: GGGAGUUCUACAGUCCGACGAUCCUGAACGGCCAGUGGUGGGAAAUAAUCAAGCCAGUGCUCUGCUUCAGAAAACUUUACUAUCUCGUCAUCAGAGAGCCCAAGGGAUUUCAUAAUGUCCCACUGGUACUUAGAAGAUCCAGCCAACAGAGGAUUGAGCAUCA

In the experiment the target is T1, UNK ZnF1-3. Put plainly: nsRBNS (natural sequence RNA bind-n-seq); RBNS binding buffer (assumed for nsRBNS): 25 mM Tris pH 7.5, 150 mM KCl, 3 mM MgCl2, 0.01% Triton X-100, 500 ug/ml BSA, 20 U/ml SUPERase-In, 4 C; UNK is unkempt and MSI1 is Musashi-1; names of the RNAs are library labels; protein concentration not given here; high values mean tight binding.
In turn, B1 came in with a binding signal of 0.807 enrichment R.

Consider B2, for which the binding signal amounted to 0.841 enrichment R.

Take B3: the binding signal was 0.961 enrichment R.

The molecule B4 gave a binding signal of 0.911 enrichment R.

In turn, B5 had a binding signal of 0.622 enrichment R.

The molecule B6 showed a binding signal of 1.15 enrichment R.

With B7, the binding signal is 1.12 enrichment R.

Regarding B8, the binding signal came out at 0.642 enrichment R.

B9 showed a binding signal of 1.05 enrichment R.

B10 displayed a binding signal of 0.964 enrichment R.

In turn, B11 returned a binding signal of 1.28 enrichment R.

In turn, B12 displayed a binding signal of 1.35 enrichment R.

B13: the binding signal was determined as 0.855 enrichment R.

In turn, B14 showed a binding signal of 1.56 enrichment R.

In the case of B15, the binding signal was 0.845 enrichment R.

As to B16, the binding signal is 1.12 enrichment R.

In the case of B17, the binding signal was 1.72 enrichment R.

B18 had a binding signal of 0.63 enrichment R.

The molecule B19 returned a binding signal of 1.05 enrichment R.

In the case of B20, the binding signal is 1.95 enrichment R.

In turn, B21 came in with a binding signal of 0.883 enrichment R.

For B22, the binding signal stood at 1.44 enrichment R.

For the origin of these results see paper PMC12136788.
